{
  "source": "the supplement of paper PMC8728848",
  "test_in_all_cases": "glycan array binding signal (z-score within array); higher = stronger binding",
  "settings_in_all_cases": "glycan notation: IUPAC condensed, linker removed",
  "key": {"[1]": {"target": "Gal(b1-4)GlcNAc(b1-6)GalNAc", "outline": "(§1)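 The binding signal is a Z-score computed within each array. Data were drawn from 3228 arrays in the Consortium for Functional Glycomics database, restricted to those with a known protein sequence. Scores were averaged over arrays of the same protein sequence at different concentrations or buffers, and over linkers, and negative values can be taken as non-binding.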"}, "[2]": {"target": "Gal(b1-4)GlcNAc(b1-6)[Gal(b1-3)]GalNAc", "outline": "as §1"}, "[3]": {"target": "Gal(b1-4)GlcNAc(b1-6)[Gal(b1-4)GlcNAc(b1-3)]GalNAc", "outline": "as §1"}, "Gal(b1-4)GlcNAc6P": {"target": "Gal(b1-4)GlcNAc6P", "outline": "as §1"}, "Gal(b1-6)Gal": {"target": "Gal(b1-6)Gal", "outline": "as §1"}, "Gal3S(b1-3)GalNAc": {"target": "Gal3S(b1-3)GalNAc", "outline": "as §1"}, "Gal3S(b1-3)GlcNAc": {"target": "Gal3S(b1-3)GlcNAc", "outline": "as §1"}, "[4]": {"target": "Gal3S(b1-3)[Fuc(a1-4)]GlcNAc", "outline": "as §1"}, "Gal3S(b1-4)Glc": {"target": "Gal3S(b1-4)Glc", "outline": "as §1"}, "Gal3S(b1-4)Glc6S": {"target": "Gal3S(b1-4)Glc6S", "outline": "as §1"}, "Gal3S(b1-4)GlcNAc": {"target": "Gal3S(b1-4)GlcNAc", "outline": "as §1"}, "[5]": {"target": "Gal3S(b1-4)[Fuc(a1-3)]Glc6S", "outline": "as §1"}, "[6]": {"target": "Gal3S(b1-4)[Fuc(a1-3)]GlcNAc", "outline": "as §1"}, "[7]": {"target": "Gal3S(b1-4)[Fuc(a1-3)]GlcNAc6S", "outline": "as §1"}, "Gal3S4S(b1-4)GlcNAc": {"target": "Gal3S4S(b1-4)GlcNAc", "outline": "as §1"}, "Gal3S6S(b1-4)GlcNAc": {"target": "Gal3S6S(b1-4)GlcNAc", "outline": "as §1"}, "Gal3S6S(b1-4)GlcNAc6S": {"target": "Gal3S6S(b1-4)GlcNAc6S", "outline": "as §1"}, "Gal4S(b1-4)GlcNAc": {"target": "Gal4S(b1-4)GlcNAc", "outline": "as §1"}, "Gal4S6S(b1-4)GlcNAc": {"target": "Gal4S6S(b1-4)GlcNAc", "outline": "as §1"}, "Gal6P(b1-4)GlcNAc": {"target": "Gal6P(b1-4)GlcNAc", "outline": "as §1"}, "Gal6S(b1-3)GlcNAc": {"target": "Gal6S(b1-3)GlcNAc", "outline": "as §1"}, "Gal6S(b1-3)GlcNAc6S": {"target": "Gal6S(b1-3)GlcNAc6S", "outline": "as §1"}, "Gal6S(b1-4)Glc": {"target": "Gal6S(b1-4)Glc", "outline": "as §1"}, "Gal6S(b1-4)Glc6S": {"target": "Gal6S(b1-4)Glc6S", "outline": "as §1"}, "Gal6S(b1-4)GlcNAc": {"target": "Gal6S(b1-4)GlcNAc", "outline": "as §1"}, "Gal6S(b1-4)GlcNAc6S": {"target": "Gal6S(b1-4)GlcNAc6S", "outline": "as §1"}, "GalNAc(a1-3)Gal": {"target": "GalNAc(a1-3)Gal", "outline": "as §1"}, "GalNAc(a1-3)GalNAc": {"target": "GalNAc(a1-3)GalNAc", "outline": "as §1"}, "[8]": {"target": "GalNAc(a1-3)GalNAc(b1-3)Gal(a1-4)Gal(b1-4)Glc", "outline": "as §1"}, "[9]": {"target": "GalNAc(a1-3)GalNAc(b1-3)Gal(a1-4)Gal(b1-4)GlcNAc", "outline": "as §1"}, "GalNAc(b1-3)Gal": {"target": "GalNAc(b1-3)Gal", "outline": "as §1"}, "[10]": {"target": "GalNAc(b1-3)Gal(a1-4)Gal(b1-4)GlcNAc", "outline": "as §1"}, "[11]": {"target": "GalNAc(b1-3)Gal(a1-4)Gal(b1-4)GlcNAc(b1-3)Gal(b1-4)Glc", "outline": "as §1"}, "[12]": {"target": "GalNAc(b1-3)Gal(a1-6)Gal(b1-4)Glc", "outline": "as §1"}, "GalNAc(b1-3)GalNAc": {"target": "GalNAc(b1-3)GalNAc", "outline": "as §1"}, "GalNAc(b1-3)GlcNAc": {"target": "GalNAc(b1-3)GlcNAc", "outline": "as §1"}, "GalNAc(b1-4)Gal(b1-4)Glc": {"target": "GalNAc(b1-4)Gal(b1-4)Glc", "outline": "as §1"}, "GalNAc(b1-4)GlcNAc": {"target": "GalNAc(b1-4)GlcNAc", "outline": "as §1"}},
  "note": "Some of the results follow.",
  "data": [
    {"binder": "PNGase F (Flavobacterium meningosepticum) (protein) GIPAPADNTVNIKTFDKVKNAFGDGLSQSAEGTFTFPADVTAVKTIKMFIKNECPNKTCDEWDRYANVYVKNKTTGEWYEIGRFITPYWVGTEKLPRGLEIDVTDFKSLLSGNTELKIYTETWLAKGREYSVDFDIVYGTPDYKYSAVVPVVQYNKSSIDGVPYGKAHTLALKKNIQLPTNTEKAYLRTTISGWGHAKPYDAGSRGCAEWCFRTHTIAINNSNTFQHQLGALGCSANPINNQSPGNWTPDRAGWCPGMAVPTRIDVLNNSLIGSTFSYEYKFQNWTNNGTNGDAFYAISSFVIAKSNTPISAPVVTNLDPHHHHHH", "values": [
      {"measurement": "glycan array binding signal (z-score)", "setting": "[1]", "result": -0.228},
      {"measurement": "glycan array binding signal (z-score)", "setting": "[2]", "result": 1.14},
      {"measurement": "glycan array binding signal (z-score)", "setting": "[3]", "result": -0.289},
      {"measurement": "glycan array binding signal (z-score)", "setting": "Gal(b1-4)GlcNAc6P", "result": 0.41},
      {"measurement": "glycan array binding signal (z-score)", "setting": "Gal(b1-6)Gal", "result": 0.208},
      {"measurement": "glycan array binding signal (z-score)", "setting": "Gal3S(b1-3)GalNAc", "result": -0.135},
      {"measurement": "glycan array binding signal (z-score)", "setting": "Gal3S(b1-3)GlcNAc", "result": -0.054},
      {"measurement": "glycan array binding signal (z-score)", "setting": "[4]", "result": -0.01},
      {"measurement": "glycan array binding signal (z-score)", "setting": "Gal3S(b1-4)Glc", "result": 0.503},
      {"measurement": "glycan array binding signal (z-score)", "setting": "Gal3S(b1-4)Glc6S", "result": 0.204},
      {"measurement": "glycan array binding signal (z-score)", "setting": "Gal3S(b1-4)GlcNAc", "result": 0.011},
      {"measurement": "glycan array binding signal (z-score)", "setting": "[5]", "result": -0.038},
      {"measurement": "glycan array binding signal (z-score)", "setting": "[6]", "result": -0.198},
      {"measurement": "glycan array binding signal (z-score)", "setting": "[7]", "result": 0.165},
      {"measurement": "glycan array binding signal (z-score)", "setting": "Gal3S4S(b1-4)GlcNAc", "result": -0.092},
      {"measurement": "glycan array binding signal (z-score)", "setting": "Gal3S6S(b1-4)GlcNAc", "result": -0.105},
      {"measurement": "glycan array binding signal (z-score)", "setting": "Gal3S6S(b1-4)GlcNAc6S", "result": -0.035},
      {"measurement": "glycan array binding signal (z-score)", "setting": "Gal4S(b1-4)GlcNAc", "result": -0.324},
      {"measurement": "glycan array binding signal (z-score)", "setting": "Gal4S6S(b1-4)GlcNAc", "result": -0.234},
      {"measurement": "glycan array binding signal (z-score)", "setting": "Gal6P(b1-4)GlcNAc", "result": 0.103},
      {"measurement": "glycan array binding signal (z-score)", "setting": "Gal6S(b1-3)GlcNAc", "result": -0.271},
      {"measurement": "glycan array binding signal (z-score)", "setting": "Gal6S(b1-3)GlcNAc6S", "result": -0.051},
      {"measurement": "glycan array binding signal (z-score)", "setting": "Gal6S(b1-4)Glc", "result": 0.078},
      {"measurement": "glycan array binding signal (z-score)", "setting": "Gal6S(b1-4)Glc6S", "result": -0.41},
      {"measurement": "glycan array binding signal (z-score)", "setting": "Gal6S(b1-4)GlcNAc", "result": -0.269},
      {"measurement": "glycan array binding signal (z-score)", "setting": "Gal6S(b1-4)GlcNAc6S", "result": -0.154},
      {"measurement": "glycan array binding signal (z-score)", "setting": "GalNAc(a1-3)Gal", "result": -0.08},
      {"measurement": "glycan array binding signal (z-score)", "setting": "GalNAc(a1-3)GalNAc", "result": -0.109},
      {"measurement": "glycan array binding signal (z-score)", "setting": "[8]", "result": -0.327},
      {"measurement": "glycan array binding signal (z-score)", "setting": "[9]", "result": -0.175},
      {"measurement": "glycan array binding signal (z-score)", "setting": "GalNAc(b1-3)Gal", "result": 0.356},
      {"measurement": "glycan array binding signal (z-score)", "setting": "[10]", "result": -0.194},
      {"measurement": "glycan array binding signal (z-score)", "setting": "[11]", "result": -0.311},
      {"measurement": "glycan array binding signal (z-score)", "setting": "[12]", "result": -0.296},
      {"measurement": "glycan array binding signal (z-score)", "setting": "GalNAc(b1-3)GalNAc", "result": -0.141},
      {"measurement": "glycan array binding signal (z-score)", "setting": "GalNAc(b1-3)GlcNAc", "result": -0.074},
      {"measurement": "glycan array binding signal (z-score)", "setting": "GalNAc(b1-4)Gal(b1-4)Glc", "result": 1.15},
      {"measurement": "glycan array binding signal (z-score)", "setting": "GalNAc(b1-4)GlcNAc", "result": -0.08}
    ]}
  ]
}
